Experimental data reported in publication PMC6212790.
Some of the results follow. At the low end of the ranking the order means little.

target: T1, GST-Rok-C97-191 (UniProt O34857); test: protein binding microarray; settings: Rok is a gene silencer of Bacillus subtilis; high values mean tight binding; most listed sequences are background and not binding sites; double strand, one strand shown;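 further: rank score from −0.5 (least bound) to 0.5 (best bound)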
T1 sequence: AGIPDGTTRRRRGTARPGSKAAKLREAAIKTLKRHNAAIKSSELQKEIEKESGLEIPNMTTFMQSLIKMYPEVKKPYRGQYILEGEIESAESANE

Row | Sequence | binding signal [E-score]
1 | AGATTGGA | 0.155
2 | CTCGTACA | -0.101
3 | GCCATAGA | 0.036
4 | TCGTGGCA | -0.199
5 | GCTCACAC | 0.0636
6 | GACGCATA | -0.112
7 | AGATGTGA | -0.144
8 | GAGAGAGC | -0.17
9 | ACTTCCCA | -0.055
10 | AGACGGGA | -0.224
11 | ACGTGTCC | -0.0293
12 | AGCCGGAT | 0.00464
13 | CGCATGAG | -0.138
14 | CGATCCAC | -0.181
15 | GGGATTAA | 0.0675
16 | AGACCGGG | -0.236
17 | CACGTTCA | -0.0436
18 | CTCCATCC | -0.191
19 | GTCGACAC | -0.208
20 | CCTCTAAA | -0.0294
21 | CCGGCTCC | -0.22
22 | CCATACAG | -0.209
23 | GCCTTATA | -0.00735
24 | GAACGAGC | -0.332
25 | ATGGTTAA | 0.22

Row | Sequence | binding signal [E-score]
26 | ACGCCAAT | -0.095
27 | CCAGGTCA | -0.0861
28 | AAGTTGCT | 0.224
29 | CAGCAAAC | -0.0196
30 | AATGCCAA | -0.104
31 | GGGGTGAA | 0.0222
32 | CCCGCGGC | -0.229
33 | ACACTCTA | -0.0518
34 | AAAATGTC | 0.0401
35 | ATCAATAG | 0.219
36 | GTGTGTGA | -0.228
37 | TGTTAAAA | -0.0158
38 | AGCAATAC | 0.171
39 | AGCTGAGC | -0.202
40 | CAGAATTC | 0.175
41 | CTCTTGAC | -0.129
42 | ACTAGGAA | 0.187
43 | CTTTCCTA | 0.114
44 | CCGAAATA | 0.224
45 | ACTAGGTC | 0.0775
46 | GCGTCACA | -0.207
47 | ATTAGCGC | 0.208
48 | AGTATATG | 0.264
49 | CCACGAGC | -0.218
50 | AGAGGCAC | -0.177

Row | Sequence | binding signal [E-score]
51 | AAGTTCCT | -0.112
52 | GAATCCCC | -0.29
53 | CGGTGGCC | -0.149
54 | CTTTCTCA | -0.12
55 | CCTATTGA | -0.0399
56 | CGGTATAA | 0.272
57 | AAAAGAGA | 0.147
58 | GTCAGTTA | 0.104
59 | CTTGTAAC | 0.158
60 | AGTTCTTA | 0.00493
61 | CGTCGACC | -0.209
62 | CCTATAGG | -0.00329
63 | AACCTTCA | -0.0626
64 | AGACTTTA | 0.0153
65 | TATGCTGA | -0.00907
66 | GATCACAC | 0.00567
67 | GCGAGGCC | -0.33
68 | GGGCTGAC | -0.156
69 | GGGTAGAA | 0.384
70 | GTCACGGA | -0.0778
71 | CACTGATG | -0.206
72 | CACGACGG | -0.104
73 | AGCGAGAC | -0.159
74 | ATCTCCGC | -0.132
75 | AAACCATC | 0.00757

Row | Sequence | binding signal [E-score]
76 | CGTTCGAC | -0.192
77 | GTACGGGA | 0.104
78 | ATAGATAC | 0.357
79 | CGAAGGCG | -0.0617
80 | ACGGTGCA | -0.0507
81 | TATCGCCA | 0.161
82 | ACCTAAAC | -0.0158
83 | CAGTAGGA | 0.144
84 | ACCACTGG | -0.195
85 | GGTAACCA | 0.00545
86 | AACCATCC | -0.0571
87 | GAGGGTTA | -0.131
88 | AGGCCGAT | -0.0986
89 | CTATCGAA | 0.206
90 | GAAGTAAA | 0.254
91 | AATCTTAC | 0.171
92 | ATCTTCCG | -0.00237
93 | AATGATGA | 0.00727
94 | AGTAAGAA | 0.297
95 | CACGCAGC | -0.287
96 | TCAGGGAA | -0.18
97 | GCAGTTCC | -0.0226
98 | CACGGCTA | 0.0275
99 | CACAGGAA | -0.0787
100 | CCCTCATA | -0.021

Row | Sequence | binding signal [E-score]
101 | CTCAGAGA | -0.0632
102 | CGCGTCGC | -0.188
103 | CAATGACG | -0.168
104 | GACGTACC | 0.00655
105 | ACGTGCGC | -0.256
106 | ATTGGGGC | -0.128
107 | CACCGGCC | -0.242
108 | AATATGCA | 0.245
109 | CCCTAGCC | -0.283
110 | GCAGTAAA | 0.138
111 | ATTGCTCG | 0.0332
112 | TAGAACCA | 0.0922
113 | AATCAGCA | -0.0277
114 | AGCTTCCG | -0.0997
115 | AGAAGCAT | 0.071
116 | AGCTGGAG | -0.0549
117 | GCTTTCGA | 0.0291
118 | ATACCATC | 0.0328
119 | CTGATCAC | -0.00299
120 | GGTGCCAC | -0.197
121 | CGCGAAGC | -0.239
122 | ACGATCGC | 0.0318
123 | CCAAGTGC | -0.191
124 | CAGTTGGC | -0.0639
125 | CTAAGAAG | 0.00211

Row | Sequence | binding signal [E-score]
126 | TACACTGA | -0.0753
127 | AAAGCATG | -0.0182
128 | ATAATGAT | 0.177
129 | ACCAAGAA | 0.0343
130 | GTCAGATA | 0.115
131 | GGACATTA | -0.121
132 | GCCATAAA | -0.106
133 | ATGCATAC | 0.0643
134 | TATGACCA | 0.132
135 | TCTTAGCA | 0.0509
136 | ATGCTGAG | -0.233
137 | CGATTGGC | -0.0407
138 | GAATGTAC | 0.304
139 | CGTCCTCA | -0.0889
140 | ACTAAGAT | 0.236
141 | GGCTAGAA | -0.162
142 | ACTCCGCC | -0.183
143 | CGAGGTGA | -0.0936
144 | GATCATTA | 0.287
145 | AATGTGCA | 0.0594
146 | GGTCATGA | -0.0841
147 | GGTCCGAA | 0.0575
148 | CAGTTGCA | -0.0955
149 | ATGAAAGC | -0.0998
150 | GCCGTGAC | -0.151

Row | Sequence | binding signal [E-score]
151 | CCTACGAC | -0.0164
152 | CCGCCATA | -0.152
153 | GCAAAAAA | -0.0414
154 | CCTACTTA | 0.195
155 | CGATACTC | -0.0843
156 | AAACCTTT | 0.12
157 | AAAGGTAG | 0.316
158 | CAGTCGCC | -0.232
159 | GTGCATGA | -0.0244
160 | ATCTTACC | 0.2
161 | CAGACCGG | 0.0497
162 | ATTATAGG | 0.226
163 | CCTTGTTC | -0.069
164 | GACTTCAC | -0.114
165 | ACGGCTCC | -0.23
166 | ACATCTGG | -0.233
167 | ACCATAGT | 0.21
168 | AACTCATA | 0.0551
169 | CTTCGGCC | -0.0974
170 | CGTTGGTA | 0.174
171 | ATATGTCG | 0.22
172 | CCACAATC | -0.0214
173 | CTCAAAGA | -0.0568
174 | GCGCGCGC | 0.00259
175 | CTGATTAC | 0.0104

Row | Sequence | binding signal [E-score]
176 | TGGATGAA | -0.115
177 | AAAGGGGC | -0.316
178 | GCTCTGAC | -0.296
179 | GCGTCTGA | -0.208
180 | AAGGTCGG | -0.209
181 | CGAACGCC | -0.36
182 | CGCTCGAC | -0.142
183 | CGGCAAGA | 0.0761
184 | AGGCCCCC | -0.385
185 | CAATGTCA | 0.0875
186 | CCAGGATA | 0.0439
187 | AACGATGC | -0.0905
188 | GACGACAA | -0.0358
189 | GATTCGGC | -0.286
190 | CAGGGACA | -0.257
191 | CTACGTGA | -0.0981
192 | GAGTCATC | -0.185
193 | AGGGTCAC | -0.127
194 | GCATACCC | -0.0893
195 | GAGCCGCA | -0.281
196 | GTTGGGTA | 0.124
197 | ACATAACG | 0.154
198 | CTCTTGTC | -0.25
199 | AAGAGAGT | -0.095
200 | ACCCCAGG | -0.284

Row | Sequence | binding signal [E-score]
201 | CCTGTAGC | 0.0103
202 | AGGGTTAT | -0.176
203 | CTCCACTC | -0.216
204 | CCACTTTC | -0.152
205 | AACCTCAC | -0.124
206 | CAGGAGAC | -0.181
207 | CCAGCCGG | -0.207
208 | CAAGATCG | 0.091
209 | ATAAACTC | 0.173
210 | CCACATGC | -0.0305
211 | AAGCGTTG | -0.156
212 | ACCTTAGC | -0.0479
213 | GCATGGGA | -0.112
214 | AGGCATTG | -0.0865
215 | GGTGCAGA | -0.162
216 | CCCCTTCA | -0.197
217 | AAGATAAG | 0.0425
218 | ATGATTTC | 0.0114
219 | CGCTACCA | 0.169
